# According to PubChem BioAssay AID1347073 (National Center for Advancing Translational Sciences (NCATS), 2019):
# Hit rate of the full screen: of about 45,000 compounds, about 200 (0.44%) were called active. About 7% were inconclusive and are not listed. Calls come from the whole dose curve; as a rule, active = well fitted activation curve with a large enough effect; inconclusive = small, poorly fitted or top-dose-only effect; inactive = no such curve, though single readings can be large or run the other way. This is one part of the list.
# Assay: qHTS of TDP-43 Inhibitors: NCGC Sytravon Library Screen; note: 0% is about no effect; nearly all actives have a fitted effect of over 55% in size
# Details: yeast TDP-43 toxicity rescue, BacTiter-Glo growth, 24 h; series mostly up to 46.1 µM; growth rescue (activation): at the top concentration
# Outline: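 TDP-43-expressing yeast, pregrown in raffinose, seeded at OD600 0.02 in galactose medium with compound for 24 hr at 30 deg C. Growth read by BacTiter-Glo luminescence, so rescue of toxicity appears as activation.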
row,SMILES,growth rescue (activation)
1,COc1ccc(N(CC(=O)NCCSc2ccccc2)S(C)(=O)=O)cc1,inactive: 6.9%
2,CCC(=O)N1c2ccc(C)cc2C2=NNC(=S)NC21O (centres undefined),inactive: 12.5%
3,CN(C)S(=O)(=O)c1cccc(NC(=O)COC(=O)/C=C/c2ccco2)c1,inactive: -16.9%
4,Cn1c(Nc2ccc(F)cc2)nc2cc(-c3ccsc3)sc2c1=O,inactive: 24.2%
5,CCOc1ccc(S(=O)(=O)NCc2ccc(OC)cc2)c2cccnc12,inactive: -15.7%
6,COc1ccc(CN2CCNC(=O)C2CC(=O)N(Cc2nccn2C)C(C)C)c(OC)c1 (centres undefined),inactive: -2.21%
7,CC(C)C(=O)N1CCC1(C)C(=O)NCc1cc(Cl)ccc1F (centres undefined),inactive: -6.1%
8,Cc1ccc(S(=O)(=O)NN=C2C3CC4CC(C3)CC2C4)cc1[N+](=O)[O-],inactive: 14.7%
9,N#CCSc1ccc(S(=O)(=O)N2CCOCC2)cn1,inactive: 9.75%
10,Oc1[nH]c2ccccc2c1N=Nc1ccc(F)cc1,inactive: 19.4%
11,O=C(COC(=O)/C=C/c1ccc(S(=O)(=O)N2CCOCC2)cc1)Nc1ccc(F)c(F)c1F,inactive: 4.61%
12,Cc1ccc([C@@H]2C[C@H]3CN(Cc4cccc(Cl)c4)C(=O)[C@]34CCCN24)o1,inactive: 3.7%
13,COc1ccccc1N1C(=S)N=C(Nc2c(C)cccc2C)C12CCCC2,inactive: 17.8%
14,Cc1cc(C)c(S(=O)(=O)Nn2cnnc2)c(C)c1,inactive: 13.6%
15,COc1ccc(NC(=O)c2[nH]c(C)c(C(C)=O)c2C)cc1S(=O)(=O)Nc1ccc(Br)cc1,inactive: -5.65%
16,COc1cc2[nH]c(=O)n(CCC(=O)N3CCN(Cc4ccccc4)CC3)c(=O)c2cc1OC,inactive: 5.8%
17,CCC1CCCCN1CCCNC(=O)c1ccc(N2CCOCC2)c(NS(=O)(=O)c2ccc(OC)cc2)c1 (centres undefined),inactive: -3.69%
18,O=C(NCc1ccccc1)C1CCCN(S(=O)(=O)c2ccc(-n3cnnn3)cc2)C1 (centres undefined),inactive: -1.08%
19,CCOc1ccccc1NC(=O)c1ccc(OCC)c([N+](=O)[O-])c1,inactive: 13.1%
20,C=CCSc1nnc(CC(OC)OC)n1-c1ccccc1,inactive: 10.8%
21,CCCCNC(=O)Cc1ccc(C)cc1,inactive: -0.41%
22,Cc1ccc(NC(=O)COc2ccc(-c3nn(C)c(=O)c4ccccc34)cc2)c(C)c1,inactive: 7.78%
23,CCOC(=O)Cc1c(C)nc2c(-c3cccc(Br)c3)cnn2c1C,inactive: 20.1%
24,CCCCOc1cccc(C(=O)Nc2ccc(NC(=O)c3cccs3)cc2)c1,inactive: 8.19%
25,Cc1cccc(C)c1OCC(=O)Nc1ccc(NC(=O)c2ccco2)cc1,inactive: 16.6%
26,O=C(O)c1ccc(S(=O)(=O)N2CCOCC2)o1,inactive: -6.1%
27,O=C(NCCNC(=O)c1cc(Cl)ccc1Cl)c1ccccn1,inactive: 11.7%

row,SMILES,growth rescue (activation)
1,CCCCSc1nnc2c(n1)OC(c1ccc(C)s1)Nc1ccccc1-2 (centres undefined),inactive: -1.23%
2,CCOC(=O)/C(C#N)=C/c1cc2ccc(C)cc2nc1Cl,inactive: 27.5%
3,NS(=O)(=O)c1ccc(CCNC(=O)c2ccc(=O)[nH]c2)cc1,inactive: -15.2%
4,CC(C)CNS(=O)(=O)c1ccc(CCC(=O)NCc2ccco2)cc1,inactive: 30.3%
5,CC(=O)NC(CC(=O)NC1CCCc2ccccc21)c1ccccc1 (centres undefined),inactive: -11.1%
6,CCCNS(=O)(=O)c1cccc(C(=O)OCc2cc(=O)oc3cc(OC)ccc23)c1,inactive: 26.6%
7,COc1ccc(C2CC(=O)Oc3c2c(=O)n(C)c2ccccc32)c(OC)c1OC (centres undefined),inactive: 6.24%
8,COc1ccc(NC(=O)CSc2cn[nH]n2)c(OC)c1,inactive: -2.64%
9,O=C1CN(C(=O)COC(=O)CCNS(=O)(=O)c2ccc(Cl)cc2)c2ccccc2N1,inactive: 14.4%
10,CCc1ccc(NC(=O)CSc2nnc(-c3n[nH]c4ccccc34)n2-c2ccccc2)cc1,inactive: -6%
11,Cc1cccc(N2CCN(C(=O)C3CCN(S(=O)(=O)N4CCOCC4)CC3)CC2)c1C,inactive: 15.5%
12,COc1ccc([N+](=O)[O-])cc1NC(=O)c1ccc(N2C(=O)CCC2=O)cc1,inactive: -19.3%
13,Cc1nnc(NC(=O)CSc2nnc3ncccn23)s1,inactive: -12%
14,Cn1nc(-c2ccc(OCC(=O)NCC3CCCO3)cc2)c2ccccc2c1=O (centres undefined),inactive: 10.8%
15,C/C(=N\NC(=O)COc1ccc(C)cc1C(C)C)c1cc2ccccc2o1,inactive: 5.65%
16,CSCCC(NS(=O)(=O)c1ccc2c(c1)Cc1cc(S(=O)(=O)NC(CCSC)C(=O)O)ccc1-2)C(=O)O (centres undefined),inactive: 2.32%
17,O=C(O)c1ccc2c(=O)n3c(nc2c1)/C(=C/c1cccc(Cl)c1Cl)CC3,inactive: -9.99%
18,CC(C)Cc1nnc(NC(=O)CSc2nc(-c3ccccc3)cc(=O)[nH]2)s1,inactive: 18.1%
19,Nc1nonc1-n1nnc(C(=O)N/N=C/c2ccco2)c1-c1ccccc1,inactive: 3.95%
20,Cc1ccc(C(C(=O)NCc2ccccc2)N(C(=O)c2ccccn2)c2ccccc2)o1 (centres undefined),inactive: -18.9%
21,O=C(C1CCN(Cc2ccc(Cl)cc2)CC1)N1CCN(Cc2ccc3c(c2)OCO3)CC1,inactive: 14.4%
22,O=C(CCn1c2c(c3ccccc31)CCCC2)NNC(=O)c1ccccc1Cl,inactive: 8.71%
23,CN=c1scc(-c2cccs2)n1/N=C/c1ccc(O)c(O)c1O,inactive: -52.3%
24,CC1Cc2ccccc2N1S(=O)(=O)c1cccc(C(=O)NCc2ccco2)c1 (centres undefined),inactive: 6.19%
25,CCc1ccc(CCC(=O)Nc2ncc(Cc3ccccc3Cl)s2)o1,inactive: 12.5%
26,CCc1ccc(N(C(=O)c2csnn2)C(C(=O)NC(C)(C)C)c2ccccn2)cc1 (centres undefined),inactive: 1.69%
27,Cc1ccc(NC(=O)c2ccc(CNc3c(N4CCC(C)CC4)c(=O)c3=O)cc2)cc1,inactive: 30.4%
